Measurements as given in paper PMC12136788.
The other results are listed elsewhere or left out.

T1: UNK ZnF1-6 (called full-length) (human, UniProt Q9C0B0 30-357)
T1 sequence: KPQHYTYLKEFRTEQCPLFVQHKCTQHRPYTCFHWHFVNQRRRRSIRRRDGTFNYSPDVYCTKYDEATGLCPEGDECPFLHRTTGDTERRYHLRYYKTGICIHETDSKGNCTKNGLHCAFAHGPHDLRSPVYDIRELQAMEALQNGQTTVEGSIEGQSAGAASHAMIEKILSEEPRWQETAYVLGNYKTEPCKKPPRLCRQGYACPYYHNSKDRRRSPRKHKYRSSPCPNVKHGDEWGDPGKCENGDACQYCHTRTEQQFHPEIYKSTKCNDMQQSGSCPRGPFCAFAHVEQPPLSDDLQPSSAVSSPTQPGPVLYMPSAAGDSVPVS

B1: ENSG00000124766:be:win_2501|3pUTR|ENSG00000124766|bound_else_gene|NA|bound_elsewhere_windowed (ssRNA)
RNA: GGGAGUUCUACAGUCCGACGAUCGUGUUGGAUUAUUUCAAUGGUGGGGUUAAUAUAGCAUGUUAUCCUGUCUAUCUUUUAAAGAUUUCUGUAUAAGACUGUUGAGCAGUUUUUAAAAUAGUGUAGGAUAAUAUAAAAAGCAGACAACAGAGGAUUGAGCAUCA
B2: chr7:20412513:20412614:+|3pUTR|ENSG00000105855|msi1|FALSE|unique (ssRNA)
RNA: GGGAGUUCUACAGUCCGACGAUCUCCUUAAAAAUCCAGAGUUUAUAUUUUUUUUAUACCCUCACUUGUUUGCACUAACUUUAUAGUGGACCAAGGCUGUUACCAUAGGAAGGGACAAACUUCCUUGUAGGCAACUCAGUGUUACAACAGAGGAUUGAGCAUCA
B3: chr4:87458373:87458474:+|3pUTR|ENSG00000170502|unk|total|mutant (ssRNA)
RNA: GGGAGUUCUACAGUCCGACGAUCUCCCUCCCGCUCCCCAUCUUCUGAGGCCUGAAGGAUGUUCCUGCCACAUCAAACUCCUUCCGGCAGAGUACCGCCACUGGAUGUACCGUUUAAUGUUUCAUCUGAUUUUUCUUUAAAUUACAACAGAGGAUUGAGCAUCA
B4: chr5:38883864:38883977:+|CDS|ENSG00000145623|unk|total|mutant (ssRNA)
RNA: GGGAGUUCUACAGUCCGACGAUCGUUUUCCCUAAAGAUAAGCUGGUGGAAGAAGGCACCAAUGUUACCAUUUGUUACGUUUCCCGGAACAUUCAAAAUAAUGUAUCCUGUUAUUUGGAAGGGAAACAGAUUCAUGGAGAACAACAACAGAGGAUUGAGCAUCA
B5: chr15:38470281:38470388:+|CDS|ENSG00000171262|unk|FALSE|unique (ssRNA)
RNA: GGGAGUUCUACAGUCCGACGAUCCUUCAAGCUUCACAGAUAUUACAGAACAAGAAACAUAAAAAUUCUCAAUUAGAUAAAAAUAGUGAAGUUUAUCAGGAAGUUCAAGCUAUGUUUGAUACACUUGGUAUACCCAAGUCAACACAACAGAGGAUUGAGCAUCA
B6: ENSG00000107863:be:win_2201|CDS|ENSG00000107863|bound_else_gene|NA|bound_elsewhere_windowed (ssRNA)
RNA: GGGAGUUCUACAGUCCGACGAUCCUGUCAUCCUAAGGGAAAAACCUCCAUCUGGACGCCAGACACCGCAGCCUUUAAGGCAUCAGUCUUACAUCUUGGCAGUAAAUGACCAGGAGACCGGGUCAGACACUACCUGCUGGCUGCCAACAGAGGAUUGAGCAUCA
B7: chr17:3714672:3714773:-|3pUTR|ENSG00000083457|msi1_unk|FALSE|overlapping (ssRNA)
RNA: GGGAGUUCUACAGUCCGACGAUCUUUGCAUUACUUUUUCCUUCAGGAUGAUCUAGAGCAGCAUGGAGCUGUUGGUAGAAUAUUAGUUUUUAACCAUACAUUGUCCCAAAAGUGUCUGUGCAUUGUGCAAAAAGUAAACUUAGGCAACAGAGGAUUGAGCAUCA
B8: chr1:153626309:153626462:-|CDS|ENSG00000189171|unk|total|mutant (ssRNA)
RNA: GGGAGUUCUACAGUCCGACGAUCUCCAUUGAGACCGUGGUCACCACCUUCUUCACCUUUGCAAGGCAGGAGGGCCGGAAGGACCGCCUCAGCGUCAACGAGUUCAAAGAGCUGGUUACCCAGCAGUUGCCCCAUCUGCUCAAGCAACAGAGGAUUGAGCAUCA
B9: ENSG00000107863:be:win_6551|3pUTR|ENSG00000107863|bound_else_gene|NA|bound_elsewhere_windowed (ssRNA)
RNA: GGGAGUUCUACAGUCCGACGAUCUGGAUGGAACUGGCUUCUUUAUCGAGAAGAAUAUAAUUCUGCAUGAGGACUUAAUGAAUCCAAACCUGUGUCAUGCCUGUGUGCAUACCCAAUUAAACACUGGAAAUAAAAAUUGUUUUGCAACAGAGGAUUGAGCAUCA
B10: chr6:142075650:142076049:-|CDS|ENSG00000135577|control|control|control (ssRNA)
RNA: GGGAGUUCUACAGUCCGACGAUCGUAUCGGUCUUUCAACUAUAAUGAGAUUGAUCCAUCUCUAGGCCACAUGAUUGUCACCUUAGUUGCCCGGGUUCUCAGUUUUGGCAAUUCUUGUGUCAACCCAUUUGCUCUUUACCUACUCAACAGAGGAUUGAGCAUCA
B11: chr2:130346496:130346597:+|3pUTR|ENSG00000136718|unk|total|mutant (ssRNA)
RNA: GGGAGUUCUACAGUCCGACGAUCACUCAGUCAGGACAUGGACUUGGAACUCAGGAUGGGGCUGUCACCGACAGACCCACCAGCCGGAACUGUCACAGAAUGGCCUGCUGAACUGGGAUGUGGAACUGUGGCGGGUGGAGAGGUCAACAGAGGAUUGAGCAUCA
B12: chr2:219567793:219567894:-|CDS|ENSG00000124006|msi1|FALSE|unique (ssRNA)
RNA: GGGAGUUCUACAGUCCGACGAUCCCUGCCCCGGAAGCUCGACGUCCUGGAAGGAGAGAAUGCUGUGCUGCUAGUGGAAACUCUAGAGGCCGGGGUCGAGGGACGCUGGAGCCGUGAUGGGGAGGAGCUGCCGGUCAUCUGCCACAACAGAGGAUUGAGCAUCA
B13: chr16:30603633:30603734:-|3pUTR|ENSG00000156853|unk|FALSE|unique (ssRNA)
RNA: GGGAGUUCUACAGUCCGACGAUCGUUAAGUACCACAUUCUCCUCUAAACCUUGCCUACGACAUGUUUAAUACUUCAUCUACAUAGCAGCCCUUCAGAUAAUCACAACCACUUUGCCCCCAAGUUUUCAGGUUAAGUAGCAUGACAACAGAGGAUUGAGCAUCA
B14: chr22:37084134:37084404:-|CDS|ENSG00000187045|control|control|control (ssRNA)
RNA: GGGAGUUCUACAGUCCGACGAUCCUUCCUCUCCUCCCUCUGGCUUCCUUUCCUCCCUCCCCCUCCCUCUCUUCCCUCCUCAAUAGUGACCCCCUCAUUGGAAGCCCAAGUCCCCAAUCUCAGAGGGGCAGCAAGGGGAGCGAGCAACAGAGGAUUGAGCAUCA
B15: chr6:41683977:41685078:-|three_prime_utr|ENSG00000112561|control|control|control (ssRNA)
RNA: GGGAGUUCUACAGUCCGACGAUCUCCCCGUCCGGCAUGAACAUGGCUGAGCUGGCCCAGCAGGUGGUGAAGCAGGAGCUGCCUAGCGAAGAGGGCCCAGGGGAGGCCCUGAUGCUGGGGGCUGAGGUCCCUGACCCUGAGCCACAACAGAGGAUUGAGCAUCA
B16: chr11:10770493:10770605:+|CDS|ENSG00000198730|unk|total|mutant (ssRNA)
RNA: GGGAGUUCUACAGUCCGACGAUCACAUGUGGCACCCAGUGAUACAGUUCUUAUGUUUAAUGUGGCCUUGGUCCUGCAAAGAUCCGCUACCUCUGUCCUGAAAGAUGAAAAAAGUAAUCUGAAGGAAGUACUUAAUGCUGUGAACAACAGAGGAUUGAGCAUCA
B17: chr1:155884367:155884468:+|3pUTR|ENSG00000132718|msi1|total|mutant (ssRNA)
RNA: GGGAGUUCUACAGUCCGACGAUCUGGGUCUACUGAGCAGUGGGUGCUGAGGUGACAGGGGAGGAACCAGUUGUUCUGCCGCCCCGGAACUGCCUCAGUGUCUUUGCCAGAAAAAGGCAAAGAGGCGGACAGUGCAGGGCUCCUCAACAGAGGAUUGAGCAUCA
B18: chr3:44446857:44446958:-|CDS|ENSG00000185219|msi1|total|mutant (ssRNA)
RNA: GGGAGUUCUACAGUCCGACGAUCGGGAGACAUACCCUUUCCAGUCACCAGAGGAAACACACCAGAGCAGCACAGGCUGAACGCCGCCCGCCUGCACGGUCUUCCUCUCAGGACACAAAGUUGAGAUUACAGAAGCUAAAACCACAACAGAGGAUUGAGCAUCA
B19: chrX:46853785:46853899:+|CDS|ENSG00000102218|unk|FALSE|unique (ssRNA)
RNA: GGGAGUUCUACAGUCCGACGAUCCAUCAUUGAGUCUUCCUCAAAUAUCAAAUUUGGAUGUUUUCAAUGGUACUAUCCUGAAUUAGCUUUCCAGUUCAAAGAUGCAGGGCUAAGUAUCUUCAACAAUACAUGGAGUAACAUUCACAACAGAGGAUUGAGCAUCA
B20: chr2:85351679:85351862:-|CDS|ENSG00000042445|control|control|control (ssRNA)
RNA: GGGAGUUCUACAGUCCGACGAUCGAAGCUGGAUGUGGUGGUAAUUGGCAGUGGCUUUGGGGGCCUGGCUGCAGCUGCAAUUCUAGCUAAAGCUGGCAAGCGAGUCCUGGUGCUGGAACAACAUACCAAGGCAGGGGGCUGCUGCAACAGAGGAUUGAGCAUCA
B21: ENSG00000070961:be:win_5901|3pUTR|ENSG00000070961|bound_else_gene|NA|bound_elsewhere_windowed (ssRNA)
RNA: GGGAGUUCUACAGUCCGACGAUCGUAUUGAGCUUUUACAGUAUUCAUUUUUCAACUCAAGGCAAUGGCUUUCUACACCAACUCUAAUCCAUAAACGGGUCUUAUGACAUCUAUGAAGUAGUAGCAAGACAUGCUUAGUGUGUACAACAGAGGAUUGAGCAUCA
B22: chr15:48878618:48878734:+|CDS|ENSG00000255302|unk|FALSE|bound_elsewhere (ssRNA)
RNA: GGGAGUUCUACAGUCCGACGAUCAGAACCAGCCCUGGAUGGCGGGUUUCAGAUGCAUUAUGAGAAGACCCCGUUUGAUCAGUUAGCUUUUAUCGAAGAGCUUUUUUCACUGAUGGUUGUCAAUCGUCUGACCGAAGAACUCGGCAACAGAGGAUUGAGCAUCA

biological target: T1, UNK ZnF1-6 (called full-length); test: nsRBNS (natural sequence RNA bind-n-seq); RBNS binding buffer (assumed for nsRBNS): 25 mM Tris pH 7.5, 150 mM KCl, 3 mM MgCl2, 0.01% Triton X-100, 500 ug/ml BSA, 20 U/ml SUPERase-In, 4 C; UNK is unkempt and MSI1 is Musashi-1; names of the RNAs are library labels; protein concentration not given here; high values mean tight binding

Binder | binding signal [enrichment R]
B1 | 1.78
B2 | 0.56
B3 | 0.859
B4 | 0.291
B5 | 0.862
B6 | 0.44
B7 | 0.861
B8 | 0.514
B9 | 0.294
B10 | 0.405
B11 | 1.17
B12 | 0.702
B13 | 0.688
B14 | 1.26
B15 | 0.619
B16 | 0.928
B17 | 0.568
B18 | 0.572
B19 | 0.443
B20 | 0.991
B21 | 0.631
B22 | 0.914
